Laboratory results reported in patent US20080311122A1, “Antagonists of Hmgb1 and/or Rage and Methods of Use Thereof” (Medimmune, LLC, priority 2005, published 2008).

Columns and labels:
[1] = system: HMGB1 in AIA joint lysate and sepsis sera; experiment: HMGB1 detection from biological samples (ELISA, immunoprecipitation and Western blot); format: binding; conditions: ELISA (mouse peritonitis sera), IP (human sepsis sera)
Protocol: (§1) HMGB1 Detection from Biological Samples: For detection of the HMGB1 from AA joint homogenates and peritonitis sera, sandwich ELISA was performed. Goat anti-human Fc (Pierce) 14 μg/ml in PBS was coated on Immunlon IV microtiter plate over night at 4° C. After washing and blocking with 5% milk 1 hr at room temperature, G4 or S6 in blocking buffer (10 μg/ml) were added to each well of the blocked plate. The plate was washed 1 hour later and 25 μl of AIA homogenates containing 0.8 μg/ml of HMGB1 or peritonitis sera containing 7 μg/ml of HMGB1 in 0.5 M NaCl/blocking buffer were added to the wells at two fold serial dilutions. The unbound materials were removed by washing one hr after incubation. The bound HMGB1 was detected by a mouse anti-HMGB1 antibody at 2 μg/ml followed by an anti-mouse antibody conjugated with horseradish peroxidase. Mouse peritonitis sera was obtained by heart puncture 7 days after infection with heat killed staphylococcus aureus. Joint lysate was prepared from the whole paw of AIA rats as described in Example 6 below. Human sepsis sera were purchased from a commercial source.
(§2) Immunoprecipitation and Western Blot: Anti-HMGB1 mAbs (G4 and S6) and isotype control were first biotinylated using EZ-Link Sulfo-NHS-LC-Biotin as instructed by the manufacturer (Pierce). […] The bands were detected by LumiGlo substrate solution (KPL) after washing.

[2] = molecular target: T1, HMGB1 in AIA joint lysate and sepsis sera (Rattus norvegicus, UniProt P63159); experiment: as above; format: binding; conditions: ELISA and IP
T1 construct: from tissue; host or cells: whole-paw joint lysate of AIA rats; sera of septic peritonitis mice; purchased human sepsis sera
T1 sequence (P63159 2-215): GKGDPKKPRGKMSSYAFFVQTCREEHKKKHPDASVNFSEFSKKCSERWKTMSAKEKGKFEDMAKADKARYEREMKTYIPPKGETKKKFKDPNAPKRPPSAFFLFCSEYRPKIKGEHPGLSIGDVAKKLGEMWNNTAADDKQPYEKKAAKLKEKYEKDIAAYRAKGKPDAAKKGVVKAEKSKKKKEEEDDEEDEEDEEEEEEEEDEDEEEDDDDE
Protocol: as §1, §2

B1: S6: human anti-HMG1 antibody, ATCC PTA-6143; VL/VH aa SEQ ID NO: 9/11 (antibody, listed as Homo sapiens, V domains shown)
VH: EVQLLESGGGLVQPGGSLRLSCAASGFTFSWYDMSWVRQAPGKGLEWVSRISPSGGYTMYADSVKGRFTISRDNSKNTLYLQMNSLRAEDTAVYYCARLEVGATSGGTAFDIWGQGTMVTVSS
VL: [gap - about 100 residues]
In the case of B1, the “binding / immunoprecipitation of HMGB1 from sepsis sera” value [1] is reported as “better binding to HMGB1 from sepsis sera by ELISA; also recorded: immunoprecipitate smaller band from human sepsis sera; also recorded: brings down a smaller form of HMGB1 from sepsis sera” and the “binding / immunoprecipitation of HMGB1 from arthritis (AIA) joint lysate” value [2] is reported as “did not bind or immunoprecipate HMGB1 from arthritis joints; also recorded: does not immunoprecipitate HMGB1 from joint lysates”.

“Also recorded” adds a separate entry of the source.
